Assay results from a collection of fitness landscapes (doi:10.1038/s41467-024-54723-y).
In all, about 18,000 sequences were measured (“TetR repression strength (sort-seq, GFP reporter)”: median about 0.23, highest 2% from about 0.68 on). This is one part of the list.

These sequences were tested against TetR (class B, Tn10) (UniProt P04483) (assay: TetR repression strength (sort-seq, GFP reporter) (relative to tetO2 = 1); higher = stronger repression). Conditions: E. coli.
Sequence of UniProt P04483 (P04483 whole entry): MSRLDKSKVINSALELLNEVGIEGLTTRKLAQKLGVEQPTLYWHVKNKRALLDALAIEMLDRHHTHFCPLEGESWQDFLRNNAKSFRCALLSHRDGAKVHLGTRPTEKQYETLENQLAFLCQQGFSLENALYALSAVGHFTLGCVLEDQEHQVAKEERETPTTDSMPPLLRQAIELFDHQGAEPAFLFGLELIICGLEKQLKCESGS
Outline: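 Escherichia coli SIG10-MAX cells carried a low-copy plasmid library in which eight operator positions were randomized between a constitutive promoter and sfGFP, and TetR was expressed constitutively. After 5 h of growth at 37 °C in LB with 50 µg/mL chloramphenicol, 10^6 cells were FACS-sorted into 13 fluorescence bins, and each bin was Illumina-sequenced. Repression strength was the top bin index plus one minus the read-weighted mean bin, divided by the value for the unaltered operator. Across three independent transformations, only library members with ≥30 reads in every replicate and a CV ≤0.5 were averaged.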
With TCCCACGAAGTGCGTGAGA the TetR repression strength was 0.185.
Sequence TCCCCATCAGTCGCTGAGA has a TetR repression strength of 0.0264.
In the case of TCCCTATCAGTGTTAGAGA, the TetR repression strength is reported as 0.974.
In the case of TCCCAGCGAGTGGCGGAGA, the TetR repression strength is reported as 0.289.
For TCCCACGGAGTTTAGGAGA, the TetR repression strength was 0.51.
With TCCCGTGAAGTTGTCGAGA the TetR repression strength was 0.127.
For TCCCAGGGAGTATGAGAGA, the TetR repression strength was 0.269.
TCCCGGGAAGTGCCGGAGA gave a TetR repression strength of 0.127.
In the case of TCCCCTAAAGTGTTGGAGA, the TetR repression strength is reported as 0.14.
Work on TCCCCAACAGTATCCGAGA yielded a TetR repression strength of 0.572.
In the case of TCCCAAATAGTCAGAGAGA, the TetR repression strength is reported as 0.225.
In the case of TCCCATGAAGTTATTGAGA, the TetR repression strength is reported as 0.104.
TCCCTGTGAGTGTCCGAGA gave a TetR repression strength of 0.484.
Work on TCCCCACGAGTTATTGAGA yielded a TetR repression strength of 0.361.
With TCCCTACTAGTCGTTGAGA the TetR repression strength was 0.545.
TCCCCAGGAGTGGCAGAGA gave a TetR repression strength of 0.248.
With TCCCCTTGAGTCTGCGAGA the TetR repression strength was 0.45.
Sequence TCCCACTCAGTGTCTGAGA has a TetR repression strength of 0.267.
Work on TCCCGACCAGTGTAGGAGA yielded a TetR repression strength of 0.397.
TCCCACGTAGTAGGTGAGA showed a TetR repression strength of 0.201.
Work on TCCCCGCGAGTTAAGGAGA yielded a TetR repression strength of 0.61.
TCCCCCCTAGTGTAGGAGA showed a TetR repression strength of 0.0465.
With TCCCCGTTAGTCTGGGAGA the TetR repression strength was 0.238.
For TCCCTAGGAGTTTTTGAGA, the TetR repression strength was 0.313.
In the case of TCCCCCGAAGTTAAGGAGA, the TetR repression strength is reported as 0.155.
TCCCGGAGAGTGGCTGAGA showed a TetR repression strength of 0.191.
TCCCGTTAAGTGCGTGAGA showed a TetR repression strength of 0.329.
TCCCTGTTAGTCCTTGAGA was tested, and the TetR repression strength was 0.316.
In the case of TCCCAGAGAGTACTGGAGA, the TetR repression strength is reported as 0.515.
In the case of TCCCAGTCAGTTCGAGAGA, the TetR repression strength is reported as 0.282.
Sequence TCCCCAAGAGTCGATGAGA has a TetR repression strength of 0.238.
TCCCCTGTAGTGGGGGAGA gave a TetR repression strength of 0.428.
Work on TCCCGGCAAGTATTCGAGA yielded a TetR repression strength of 0.211.
Sequence TCCCTGTTAGTTGGGGAGA has a TetR repression strength of 0.0518.
TCCCGGGGAGTGCCTGAGA was tested, and the TetR repression strength was 0.195.
Sequence TCCCGAGAAGTGCACGAGA has a TetR repression strength of 0.104.
Sequence TCCCGGCGAGTTGCGGAGA has a TetR repression strength of 0.185.
TCCCACTCAGTAATTGAGA gave a TetR repression strength of 0.548.
TCCCCAAGAGTCCTAGAGA gave a TetR repression strength of 0.267.
TCCCAGTTAGTGTTCGAGA was tested, and the TetR repression strength was 0.189.
TCCCAGTTAGTCTGTGAGA gave a TetR repression strength of 0.132.
TCCCCCTGAGTCGACGAGA was tested, and the TetR repression strength was 0.607.
In the case of TCCCGGGGAGTCGCGGAGA, the TetR repression strength is reported as 0.362.
With TCCCAAGAAGTACAGGAGA the TetR repression strength was 0.216.
Work on TCCCTTGCAGTAGTGGAGA yielded a TetR repression strength of 0.591.
TCCCTTACAGTCTCCGAGA was tested, and the TetR repression strength was 0.363.
With TCCCGTATAGTACGAGAGA the TetR repression strength was 0.373.
Sequence TCCCCGGCAGTTTGGGAGA has a TetR repression strength of 0.322.
Sequence TCCCGGGGAGTGCGAGAGA has a TetR repression strength of 0.201.
TCCCCATGAGTTGGCGAGA gave a TetR repression strength of 0.123.
In the case of TCCCTTGGAGTCTCCGAGA, the TetR repression strength is reported as 0.261.
Work on TCCCCAGGAGTAGACGAGA yielded a TetR repression strength of 0.268.
With TCCCGCGTAGTGACAGAGA the TetR repression strength was 0.255.
TCCCACTAAGTAATGGAGA gave a TetR repression strength of 0.358.
TCCCGTCCAGTTGGCGAGA showed a TetR repression strength of 0.183.
With TCCCAGCAAGTGGACGAGA the TetR repression strength was 0.239.
Sequence TCCCTGTAAGTCGCTGAGA has a TetR repression strength of 0.465.
For TCCCTCCTAGTCTCCGAGA, the TetR repression strength was 0.394.
For TCCCTAGTAGTGAGAGAGA, the TetR repression strength was 0.351.
Sequence TCCCAAATAGTTCTTGAGA has a TetR repression strength of 0.407.
TCCCTGACAGTGGTAGAGA was tested, and the TetR repression strength was 0.155.
With TCCCGGATAGTTTCGGAGA the TetR repression strength was 0.283.
In the case of TCCCATTTAGTACACGAGA, the TetR repression strength is reported as 0.289.
For TCCCGCATAGTTAGTGAGA, the TetR repression strength was 0.129.
TCCCGCGGAGTTAGAGAGA was tested, and the TetR repression strength was 0.295.
TCCCTACGAGTTTTTGAGA gave a TetR repression strength of 0.197.
Sequence TCCCTGACAGTGTTGGAGA has a TetR repression strength of 0.215.
In the case of TCCCTCTCAGTGTATGAGA, the TetR repression strength is reported as 0.235.
With TCCCAGTGAGTGAGCGAGA the TetR repression strength was 0.127.
TCCCCGTGAGTCCTTGAGA was tested, and the TetR repression strength was 0.426.
In the case of TCCCGTCGAGTATCTGAGA, the TetR repression strength is reported as 0.339.
In the case of TCCCTTTTAGTCATTGAGA, the TetR repression strength is reported as 0.25.
With TCCCCCCGAGTAACCGAGA the TetR repression strength was 0.311.
Sequence TCCCTAATAGTCTGGGAGA has a TetR repression strength of 0.274.
With TCCCGGCGAGTGTATGAGA the TetR repression strength was 0.437.
For TCCCGTGGAGTGTGCGAGA, the TetR repression strength was 0.101.
Sequence TCCCAGCTAGTGGCAGAGA has a TetR repression strength of 0.571.
In the case of TCCCTTATAGTCTCGGAGA, the TetR repression strength is reported as 0.214.
Work on TCCCGTCTAGTTTGCGAGA yielded a TetR repression strength of 0.277.
Sequence TCCCGCCGAGTAGACGAGA has a TetR repression strength of 0.0297.
TCCCGAGGAGTGGGAGAGA gave a TetR repression strength of 0.163.
TCCCTTAGAGTAGCGGAGA was tested, and the TetR repression strength was 0.587.
For TCCCGAAAAGTGCCTGAGA, the TetR repression strength was 0.172.
TCCCGGCCAGTAAAGGAGA showed a TetR repression strength of 0.0748.
With TCCCGGGGAGTCGATGAGA the TetR repression strength was 0.201.
TCCCGAGGAGTCCCAGAGA gave a TetR repression strength of 0.428.
Sequence TCCCTCTGAGTGGACGAGA has a TetR repression strength of 0.0822.
In the case of TCCCCCTAAGTACGGGAGA, the TetR repression strength is reported as 0.103.
For TCCCTAGCAGTACGGGAGA, the TetR repression strength was 0.0666.
Work on TCCCATGGAGTACTAGAGA yielded a TetR repression strength of 0.166.
Work on TCCCTTGCAGTTGATGAGA yielded a TetR repression strength of 0.274.
TCCCCTTGAGTCTGAGAGA was tested, and the TetR repression strength was 0.333.
Work on TCCCAGTCAGTTAAGGAGA yielded a TetR repression strength of 0.273.
Work on TCCCCAATAGTACTGGAGA yielded a TetR repression strength of 0.18.
TCCCATCAAGTCGATGAGA gave a TetR repression strength of 0.153.
In the case of TCCCTGGAAGTCAGAGAGA, the TetR repression strength is reported as 0.0274.
Work on TCCCGACGAGTAGGTGAGA yielded a TetR repression strength of 0.187.
In the case of TCCCCACGAGTTGCAGAGA, the TetR repression strength is reported as 0.3.
With TCCCTGCTAGTCACGGAGA the TetR repression strength was 0.
Work on TCCCCCGGAGTAAGGGAGA yielded a TetR repression strength of 0.239.
Work on TCCCGACCAGTCTTGGAGA yielded a TetR repression strength of 0.31.
Sequence TCCCCTGCAGTGCGAGAGA has a TetR repression strength of 0.0342.
